Assay results: article PMC6919601, “Identification of Plasmodium dipeptidyl aminopeptidase allosteric inhibitors by high throughput screening” (PLoS ONE, 2019)
The whole screen tested about 110,000 compounds, of which about 230 (0.21%) showed an effect of 50% or more. The list shows a part of the results.

Each molecule was assayed against DPAP1 (Plasmodium falciparum, UniProt Q8IIJ9) (assay: primary screen, percent inhibition; read by cleavage of a fluorogenic dipeptide substrate; higher = more effect of the substance).
Set-up: species or system P. falciparum D10 trophozoite lysates; single well
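Further: 30 min substrate incubation versus DMSO and 10 µM JCP410 controls.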

Chain of DPAP1 (Q8IIJ9 whole entry, looked up): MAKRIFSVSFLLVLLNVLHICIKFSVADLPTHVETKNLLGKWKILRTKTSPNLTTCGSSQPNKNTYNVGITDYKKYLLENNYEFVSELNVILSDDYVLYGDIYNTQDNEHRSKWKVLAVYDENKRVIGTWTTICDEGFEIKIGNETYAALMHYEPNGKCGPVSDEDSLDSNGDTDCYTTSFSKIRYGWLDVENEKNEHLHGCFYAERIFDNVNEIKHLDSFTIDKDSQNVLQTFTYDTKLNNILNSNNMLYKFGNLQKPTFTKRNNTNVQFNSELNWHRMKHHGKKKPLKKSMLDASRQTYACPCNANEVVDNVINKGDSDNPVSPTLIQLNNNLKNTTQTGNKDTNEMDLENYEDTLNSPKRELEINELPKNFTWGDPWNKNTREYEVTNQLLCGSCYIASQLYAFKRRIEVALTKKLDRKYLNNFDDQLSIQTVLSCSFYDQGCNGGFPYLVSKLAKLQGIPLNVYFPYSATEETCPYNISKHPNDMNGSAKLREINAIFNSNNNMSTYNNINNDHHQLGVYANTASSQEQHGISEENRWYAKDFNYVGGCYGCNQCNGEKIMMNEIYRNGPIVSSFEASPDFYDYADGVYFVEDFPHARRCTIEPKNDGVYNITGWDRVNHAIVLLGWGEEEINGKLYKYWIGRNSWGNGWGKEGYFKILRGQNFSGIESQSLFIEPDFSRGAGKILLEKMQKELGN

SMILES | % Inhibition @ 10 uM
COc1ccc(-c2noc(CNC(=O)c3ccc4c(c3)OCO4)n2)cc1 | -6.72%
CNC(=O)N1C(=O)C(=O)c2ccccc21 | -2.63%
Cc1cccc2sc(NC(=O)CCS(=O)(=O)c3ccc(Br)s3)nc12 | 3.27%
CCCCN(C)C(=O)CCCn1nc(C)n2c(cc3sccc32)c1=O | 4.95%
CCOc1ccc(C(=O)Nc2ccccn2)cc1 | -7.3%
N#CCNC(=O)[C@H](Cc1cc(I)c(O)c(I)c1)NC(=O)c1ccc(C(F)(F)F)cc1 | -3.04%
CCc1nnc(NC(=O)C2c3ccccc3C(=O)N(C)C2c2cccs2)s1 (stereo not shown) | -6.69%
COc1ccc(CCNC(=O)CSc2nc(NCC3CCCO3)c3ccccc3n2)cc1OC (stereo not shown) | -1.5%
CCCCCNC(=O)c1ccc2c(c1)ncn2-c1cccc(F)c1 | -0.256%
OCCNc1nc2ccccc2n1Cc1ccccc1 | 2.44%
CCOC(=O)c1ccccc1NC(=O)c1ccc(C(C)(C)C)cc1 | -3.92%
COc1ccc(-c2ccc3c(n2)sc2c(O)cc(O)nc23)cc1OC | 25.7%
COc1ccc(NC(=O)C(c2ccccc2)c2ccccc2)cc1OC | -2.78%
Cc1ccccc1OCCn1c(SCC(=O)O)nc2ccccc21 | 3.79%
CC(C)CC(C(=O)O)N1Cc2ccc(C(=O)O)cc2C1=O (stereo not shown) | -0.795%
Cc1oc2c(c1C(=O)NC(Cc1ccccc1)C(=O)O)CCCC2 (stereo not shown) | -2.29%
CC1CC(C)(C)NC(=S)N1CC(=O)N1CCN(C(c2ccccc2)c2ccc(Cl)cc2)CC1 (stereo not shown) | -2.04%
CCCC(=O)Nc1ccccc1NC(=O)C(CC)c1ccccc1 (stereo not shown) | 1.05%
CNC(=O)/C(C#N)=C/c1c(Oc2cc(C)ccc2C(C)C)nc2ccccn2c1=O | 17%
N#Cc1c(-c2ccco2)cc(-c2ccccc2)nc1N | -0.446%
Nc1nonc1-c1ncon1 | 0.0289%
Cc1cc(C)c(NS(=O)(=O)c2ccc(NC(=O)CCC(=O)O)cc2)c(C)c1 | -9.82%
CCOc1ccc(/C=c2\sc3nc(=O)c(Cc4ccc(C)cc4)nn3c2=O)cc1OCC | -2.29%
Oc1cc(CN2CCOCC2)c(O)cc1CN1CCOCC1 | -6.68%
COc1cc(C(=O)Nc2nn3c(-c4cccc(C)c4)nnc3s2)cc(OC)c1OC | 1.68%
COc1cc(OC)cc(C(=O)NCCc2cccs2)c1 | -7.35%

SMILES | % Inhibition @ 10 uM
Clc1nc(Nc2ccc(Br)cc2)nc(N2CCOCC2)n1 | 4.65%
COc1ccccc1OCCNC(=O)c1cccs1 | 0.0719%
Cn1c(=O)c2ncn(CC(=O)Nc3cc(-c4nc5ccccc5s4)ccc3Cl)c2n(C)c1=O | -5.71%
CC1CCc2nn(CC(=O)NCc3cccnc3)cc2C1 (stereo not shown) | -1.58%
Cc1ccc(S(=O)(=O)N2CCCC2)cc1S(=O)(=O)N1CCCC1 | 1.52%
CC(C)CCNC(=O)c1cc(O)nc2ccc(S(=O)(=O)N3CCCC(C)C3)cc12 (stereo not shown) | 2.05%
COc1ccc(OC)c(CCNCc2c(C(=O)O)n(Cc3cccc(F)c3)c3cc(C)ccc23)c1 | -1.08%
Cc1ccsc1/C=C1\SC(=S)NC1=O | 1%
Cc1nc(O)nc(O)c1NC(=O)c1cccc2ccccc12 | 3.35%
Oc1nc(SCc2ccc(Cl)cc2)nc(O)c1Cc1ccccc1 | -1.64%
CCOC(=O)CN1CCc2ccccc2C1 | 5.13%
O=C(O)c1ccc(CNC(=O)c2ccc3c(c2)C(=O)N(Cc2ccccc2)C3=O)cc1 | -15.1%
CC(C)=C1C2C=CC1C1C(=O)N(c3ccc4c(c3)OCO4)C(=O)C21 (stereo not shown) | -2.54%
O=C(c1ccccc1)c1cc(F)c(F)cc1Cl | -3.63%
COCCCNC(=O)Cn1ncc2c1-c1cc(C)ccc1OC2 | -3.84%
Cc1nn(C)cc1CNC(=O)c1cccc(Br)c1 | -6.44%
Nc1nnc(N2CCCC2)s1 | -4.99%
CCO/C(O)=C1/C(C)=Nc2nc(SCC(C)C)nn2C1c1ccccc1C (stereo not shown) | -4.79%
CC(C(=O)NC(C)C12CC3CC(CC(C3)C1)C2)n1sc2ccccc2c1=O (stereo not shown) | -0.0739%
Cc1ccc(NC(=O)CN2CCN(Cc3ccccc3)CC2)cc1Cl | 1.7%
CCOC(=O)c1sc(NC(=O)c2cccnc2)nc1C | -0.053%
CS(=O)(=O)C1=NSC2=NC(=O)/C(=C\c3ccc(OS(=O)(=O)c4ccccc4)cc3)C(=N)N21 | -3.39%
Cc1cc(Cl)ccc1N(CC(=O)NCCSc1ccccc1)S(C)(=O)=O | -6.27%
Cc1ccc(-c2c[n+]([O-])c3c([n+]2[O-])CCCC3)cc1 | 0.147%
O=[N+]([O-])c1ccc(CN2CCC3(C=Cc4ccccc43)CC2)s1 | 1.74%
Cc1ccccc1OCC(=O)Nc1ccc(NC(=O)c2cccs2)cc1 | -3.04%

SMILES | % Inhibition @ 10 uM
Cc1cc(C)c(OCC(O)CNC(C)C)c(C)c1 (stereo not shown) | -1.45%
CN(C)C(=S)NC1(C)CCS(=O)(=O)C1 (stereo not shown) | -2.65%
CCc1c(C)c(C#N)c2nc3ccccc3n2c1NCCN(C)C | 2.09%
O=C(O)c1cc(NC(=O)c2ccc([N+](=O)[O-])cc2)cc(C(=O)O)c1 | -3.52%
COC(=O)NC1CCS(=O)(=O)C1 (stereo not shown) | 7.26%
Nc1ccc(-c2nc(-c3ccccc3)c3ccccc3n2)cc1 | 4.57%
COc1ccc2c(c1)C(=O)N(c1ccc(C)cc1C)C(=O)C2 | 0.431%
CC1CCc2cc(F)ccc2N1S(=O)(=O)c1ccc(Cl)nc1 (stereo not shown) | 3.66%
CS(=O)(=O)Oc1ccc(/C=C2/C(=N)N3C(=NC2=O)SN=C3S(C)(=O)=O)cc1 | -3.39%
CC(=O)c1ccc(N2C(=O)/C(=C/c3ccccc3F)N=C2c2ccccc2)cc1 | -3.35%
Cc1nnc(O)c2nn(-c3ccccc3)c(C)c12 | -0.0309%
CCOc1ccc(NS(=O)(=O)c2ccc(NC(=O)c3ccco3)cc2)cc1 | 1.84%
CC(C)C(=O)n1nc(-c2ccco2)nc1NCc1ccc(Cl)cc1 | -1.47%
Cc1ccc(CNC(C)c2ccccc2)cc1 (stereo not shown) | 0.722%
CC1(C)C(=O)NC(=O)N1C(=O)c1ccccc1 | -3.33%
N=C(NOC(=O)Cc1cccs1)c1ccccn1 | -3.13%
Nc1ccc(NC=C2C(=O)CC(c3ccccc3)CC2=O)cc1 (stereo not shown) | 5.58%
COc1cccc2cc(S(=O)(=O)c3ccc(C)cc3)c(=O)oc12 | -3.1%
c1cc2c(cc1-c1nnc(CN3CCC4(CC3)OCCO4)o1)OCO2 | 2%
O=C(Nc1cc(Br)cc2cccnc12)c1cccc(Cl)c1 | -1.65%
COc1ccc(C2=C/C(=C/c3cccc(OC)c3OC)C(=O)O2)c(OC)c1 | 1.52%
COc1ccc(CN2CCN(Cc3ccccc3)CC2)cc1 | -2.03%
CCOc1ccccc1NC(=O)c1ccc(Cl)s1 | 2.36%
CSc1ccc(C2C(C#N)=C(N)OC3=C2C(=O)CCC3)cc1 (stereo not shown) | 1.96%
COc1ccc2c(CNCc3cccc(Cl)c3)c(C(=O)O)n(C)c2c1 | -2.39%
OC1=C2C(=Nc3ccccc3NC2c2cccs2)CC(c2ccccc2)C1 (stereo not shown) | -3.77%

SMILES | % Inhibition @ 10 uM
O=C(O)Cn1ncn2c(c(-n3cccc3)c3c4c(sc32)CCCC4)c1=O | -1.6%
c1cncc(CNc2cccc3ccccc23)c1 | -3.82%
O=C(NCc1cccnc1)C1CCN(c2ncnc3c2sc2cccc(F)c23)CC1 | -0.637%
CS(=O)(=O)N(CC(=O)N1CCCC1)c1ccc(C23C[C@H]4C[C@@H](C2)C[C@@H](C3)C4)cc1 | -4.43%
CC(=O)N1CCC(NCc2ccccc2Cl)CC1 | 1.57%
CN(CC(=O)N1CCCCCC1)S(=O)(=O)c1cc(Cl)ccc1Cl | -5.95%
O=C1NC(c2ccc(O)cc2)Nc2ccccc21 (stereo not shown) | -2.97%
O=c1c2c(n3nnnc3n1Cc1ccccc1)-c1ccccc1CC21CCCC1 | -5.78%
O=C(O)CCNC(=O)NC12CC3CC(CC(C3)C1)C2 | 2.58%
O=C(c1ccc(Br)o1)N1CCC(Cc2ccccc2)CC1 | -3.45%
COc1cc(C(=O)N2CCN(c3cccc(Cl)c3)CC2)cc(OC)c1OC | 4.37%
CC1(C)Cc2c(c(-c3ccco3)nc3sc4c(NCCN5CCOCC5)ncnc4c23)CO1 | 1.89%
CC(C)NC(=O)C(CCO)NC(C)C (stereo not shown) | -2.18%
COc1ccc(C(=O)NC2(Cc3cc(OC)ccc3OC)N=C3C(C)=CC=CN3C2=O)cc1 (stereo not shown) | 2.65%
COc1ccc2c(CNC3CCCCCC3)c(C(=O)O)n(Cc3ccccc3C)c2c1 | -2.26%
O=C(O)c1ccc(N2C(=O)CC(N3CCN(c4ccc(F)cc4)CC3)C2=O)cc1 (stereo not shown) | -1.38%
CCCCSCCCNC(=O)CN1CCN(Cc2ccc(C)cc2)C1=O | 0.718%
O=C(NCc1ccccc1)c1ccc2c(O)c(S(=O)(=O)c3ccccc3)c(O)nc2c1 | -2.26%
Cc1ccc(C(=O)N/C(=C/c2ccccc2F)C(=O)N2CCCCC2)cc1 | 0.317%
Cc1ccccc1-c1nccc2ccccc12 | -3.77%
O=C(c1ccccc1)N1CCN(C(=O)c2cc3nc(-c4ccccc4)cc(C(F)(F)F)n3n2)CC1 | -3.24%
Cc1cc2c(Cc3ccc(Br)cc3)nnc(O)c2c(O)n1 | 6.61%
Cn1c(=O)c2c(nc(NCCO)n2CCCc2ccccc2)n(C)c1=O | -5.08%
Cc1ccc2c(=O)cc(C(=O)N(Cc3ccc(Cl)cc3)Cc3ccco3)oc2c1 | 1.9%
CCCN1CCC(N2CCCC(C(N)=O)C2)CC1 (stereo not shown) | -1.21%
